The supplement of paper PMC6206098
± gives the uncertainty stated by the source. Shown are siRNA guide strands that differ only in the seed, positions 2 to 7.

What was measured:
HeyA8 = experiment: cell viability relative to lipid-only control; higher = less toxic; settings: concentration: 10 nM; 96 h; Homo sapiens
H460 = experiment: as above; settings: concentration: 10 nM; 96 h; Homo sapiens
M565 = experiment: as above; settings: concentration: 10 nM; 96 h; Mus musculus
3LL = experiment: cell viability relative to siNT1 control; HeyA8 human ovarian and H460 human lung cancer; M565 mouse liver and 3LL mouse lung cancer; siNT1 is a non-toxic control siRNA; higher = less toxic; settings: concentration: 10 nM; 96 h; Mus musculus
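Wherever cell viability relative to lipid-only control is given: reverse lipid transfection in 384-well plates, in triplicate, of duplexes on a non-toxic 19mer backbone with passenger strand 2′-O-methylated at positions 1 and 2, luminescence viability read-out.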
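Wherever cell viability relative to siNT1 control is given: Luminescence-based viability of cells reverse transfected in 384-well plates with lipid-complexed siRNAs built on a non-toxic 19mer backbone whose passenger strand carries 2′-O-methyl groups at positions 1 and 2, triplicates.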

Row | Sequence | cell viability (HeyA8) | cell viability (H460) | cell viability (M565) | cell viability (3LL)
1 | UCGGAUGACAUGUAAACCAAA | 84.7 ± 11% | 67.5 ± 11% | 83.6 ± 13% | 93.4 ± 21%
2 | UGACUGCACAUGUAAACCAAA | 6.86 ± 1.3% | 11.4 ± 0.87% | 22.2 ± 0.61% | 15.1 ± 1%
3 | UCGCACGACAUGUAAACCAAA | 85.3 ± 4% | 65.4 ± 1.6% | 74 ± 10% | 94.6 ± 18%
4 | UCUCCGUACAUGUAAACCAAA | 90.7 ± 13% | 58.1 ± 3.6% | 45.7 ± 6.7% | 91.8 ± 16%
5 | UAAGCGAACAUGUAAACCAAA | 93.2 ± 9.9% | 83.1 ± 24% | 62.9 ± 4.7% | 85.8 ± 8.3%
6 | UCAAAGCACAUGUAAACCAAA | 45.2 ± 1.9% | 29.7 ± 4.4% | 14.6 ± 3.1% | 32.8 ± 14%
7 | UGAUCGUACAUGUAAACCAAA | 54.4 ± 2.9% | 56 ± 6.8% | 30 ± 5.5% | 31.7 ± 5.5%
8 | UUUAAGUACAUGUAAACCAAA | 34.8 ± 8.1% | 63.8 ± 7.9% | 69.3 ± 11% | 88.1 ± 7.4%
9 | UAAGCCUACAUGUAAACCAAA | 68.5 ± 8.2% | 90 ± 26% | 41.2 ± 6.2% | 77.9 ± 8.3%
10 | UUGGCAGACAUGUAAACCAAA | 58.1 ± 6.9% | 92.4 ± 2.5% | 34.2 ± 3.3% | 19.3 ± 7.1%
11 | UUCCAGUACAUGUAAACCAAA | 77.4 ± 15% | 62.2 ± 11% | 51.9 ± 1.9% | 61.9 ± 12%
12 | UGAGAGCACAUGUAAACCAAA | 35.4 ± 2.2% | 32.2 ± 6.8% | 4.19 ± 1.2% | 19.2 ± 9.9%
13 | UUCAUACACAUGUAAACCAAA | 88.6 ± 7% | 50.6 ± 1.1% | 103 ± 12% | 62.9 ± 4.7%
14 | UCAAACGACAUGUAAACCAAA | 95.2 ± 8.2% | 66.5 ± 14% | 87.5 ± 6.9% | 97.4 ± 11%
15 | UGCAUUUACAUGUAAACCAAA | 44 ± 2.4% | 55.2 ± 2.3% | 51.2 ± 9.2% | 67.3 ± 6%
16 | UGCCUGGACAUGUAAACCAAA | 24.3 ± 4.1% | 27.4 ± 3.4% | 37.7 ± 4.9% | 33.6 ± 11%
17 | UAAAUCAACAUGUAAACCAAA | 103 ± 4.7% | 88.4 ± 14% | 89.9 ± 14% | 117 ± 7.4%
18 | UAUGUCUACAUGUAAACCAAA | 72.1 ± 1.7% | 61 ± 4% | 37.6 ± 9.3% | 55.3 ± 5.3%
19 | UUCACGUACAUGUAAACCAAA | 104 ± 14% | 66 ± 7.4% | 45.9 ± 14% | 103 ± 12%
20 | UCUACGAACAUGUAAACCAAA | 85.7 ± 1.7% | 81.5 ± 12% | 65.2 ± 13% | 99.5 ± 16%

Row | Sequence | cell viability (HeyA8) | cell viability (H460) | cell viability (M565) | cell viability (3LL)
21 | UCUCCAGACAUGUAAACCAAA | 85.2 ± 5.8% | 68.3 ± 7.1% | 95.1 ± 10% | 92.7 ± 15%
22 | UACAUACACAUGUAAACCAAA | 43.7 ± 3.7% | 55.9 ± 3.3% | 70.9 ± 7.2% | 64.3 ± 13%
23 | UGGAAAGACAUGUAAACCAAA | 67.1 ± 21% | 79.6 ± 20% | 38.9 ± 3.8% | 90.2 ± 6.9%
24 | UAAGUUCACAUGUAAACCAAA | 52.7 ± 6.7% | 58.6 ± 4.7% | 19.2 ± 1.6% | 61.3 ± 4.2%
25 | UUUCUAUACAUGUAAACCAAA | 89 ± 5.7% | 70.1 ± 9.8% | 43.6 ± 5.5% | 85.2 ± 3.7%
26 | UUCAUUUACAUGUAAACCAAA | 57.5 ± 6.9% | 63.7 ± 8.7% | 73.4 ± 14% | 58.7 ± 5.1%
27 | UGGAAGUACAUGUAAACCAAA | 46.7 ± 7.7% | 54.9 ± 9.7% | 10.1 ± 2.6% | 30.6 ± 3.2%
28 | UGCGGUAACAUGUAAACCAAA | 16.8 ± 0.69% | 47.8 ± 2.8% | 47.1 ± 6.4% | 80.6 ± 7.8%
29 | UCCCAACACAUGUAAACCAAA | 88.3 ± 11% | 56.8 ± 5.2% | 29.8 ± 9.9% | 88.9 ± 19%
30 | UGUGACGACAUGUAAACCAAA | 73.7 ± 5% | 45.4 ± 1.5% | 48.7 ± 8.7% | 79.3 ± 8.2%
31 | UCGUUGAACAUGUAAACCAAA | 52 ± 6.2% | 93.6 ± 14% | 45.5 ± 4.8% | 86.2 ± 11%
32 | UGGGAAGACAUGUAAACCAAA | 59.9 ± 4% | 71.8 ± 12% | 25.6 ± 9.5% | 77.9 ± 4.5%
33 | UCUGGGGACAUGUAAACCAAA | 10.9 ± 1.5% | 21.8 ± 4.6% | 25.6 ± 0.74% | 33.8 ± 1.2%
34 | UGAUGAUACAUGUAAACCAAA | 45.5 ± 2.6% | 44.3 ± 4.4% | 20.4 ± 3.9% | 32.3 ± 4.2%
35 | UGGACAGACAUGUAAACCAAA | 55.8 ± 3.1% | 47.5 ± 4.4% | 6.73 ± 1.2% | 35 ± 7.6%
36 | UACUGACACAUGUAAACCAAA | 35.3 ± 2.4% | 50.7 ± 1.5% | 6.29 ± 1.2% | 17 ± 1%
37 | UCUGGCUACAUGUAAACCAAA | 63.9 ± 4% | 31.4 ± 2.4% | 14.6 ± 1.8% | 73.2 ± 5.7%
38 | UGUGCAUACAUGUAAACCAAA | 57.2 ± 3.1% | 79.8 ± 9.4% | 39.4 ± 2.1% | 38.3 ± 13%
39 | UCAUUAGACAUGUAAACCAAA | 71.1 ± 3% | 61.5 ± 6.8% | 58.8 ± 9.8% | 99 ± 7%
40 | UGGCCGGACAUGUAAACCAAA | 5.79 ± 0.84% | 17.3 ± 1.2% | 37.6 ± 2.3% | 37.8 ± 2.9%

Row | Sequence | cell viability (HeyA8) | cell viability (H460) | cell viability (M565) | cell viability (3LL)
41 | UUCUUCGACAUGUAAACCAAA | 76.5 ± 1.4% | 51.1 ± 9.8% | 120 ± 25% | 85.5 ± 4.7%
42 | UCUUAUUACAUGUAAACCAAA | 85.1 ± 9.6% | 78.7 ± 7% | 77.2 ± 11% | 89 ± 18%
43 | UUAGACCACAUGUAAACCAAA | 80.2 ± 4.7% | 37.3 ± 11% | 78.5 ± 21% | 45.7 ± 11%
44 | UUAUCGUACAUGUAAACCAAA | 89.5 ± 5.4% | 68.9 ± 4.2% | 59.6 ± 3.4% | 38.8 ± 2%
45 | UCUGCCAACAUGUAAACCAAA | 80.5 ± 0.93% | 64.2 ± 1.2% | 63.5 ± 11% | 103 ± 14%
46 | UUAACUAACAUGUAAACCAAA | 103 ± 8.3% | 78.7 ± 15% | 104 ± 10% | 99.6 ± 10%
47 | UGAAAUAACAUGUAAACCAAA | 95.5 ± 5.1% | 77 ± 31% | 72.7 ± 12% | 100 ± 19%
48 | UUUAAAUACAUGUAAACCAAA | 96.8 ± 6.4% | 68.8 ± 5.1% | 101 ± 7.8% | 95.7 ± 2%
49 | UUCCAGGACAUGUAAACCAAA | 80.1 ± 10% | 57.4 ± 5.2% | 23.8 ± 7.8% | 61.2 ± 16%
50 | UCAUAGCACAUGUAAACCAAA | 16.6 ± 0.94% | 22.6 ± 1.2% | 3.78 ± 1.1% | 12.4 ± 2.2%
51 | UCGGGGAACAUGUAAACCAAA | 44.8 ± 7.2% | 58.8 ± 4.4% | 74.7 ± 4% | 90.6 ± 12%
52 | UUUGAAGACAUGUAAACCAAA | 101 ± 7.1% | 78.2 ± 2.4% | 75.8 ± 5.9% | 97.6 ± 2.8%
53 | UUACAAGACAUGUAAACCAAA | 99.6 ± 3.8% | 71.1 ± 0.97% | 68.6 ± 4.8% | 98.9 ± 3.2%
54 | UCUUUGCACAUGUAAACCAAA | 34.8 ± 2.9% | 48.2 ± 1.3% | 68.6 ± 6.3% | 66.5 ± 9.6%
55 | UAUCAGAACAUGUAAACCAAA | 92 ± 6.1% | 64.5 ± 4.2% | 88.1 ± 16% | 118 ± 9.7%
56 | UCGUCAAACAUGUAAACCAAA | 74.5 ± 7.7% | 73.2 ± 21% | 52.4 ± 7% | 93.5 ± 17%
57 | UUCUCGAACAUGUAAACCAAA | 94.4 ± 4.3% | 62.7 ± 5.7% | 84.5 ± 12% | 86.5 ± 8.7%
58 | UCAGUCAACAUGUAAACCAAA | 81.1 ± 2.9% | 57.4 ± 4% | 47 ± 7.3% | 84.1 ± 9.8%
59 | UGUUUAGACAUGUAAACCAAA | 59.7 ± 5.2% | 56.4 ± 4% | 91.8 ± 7.6% | 95 ± 5.5%
60 | UGUUAUGACAUGUAAACCAAA | 90.5 ± 5.4% | 79.8 ± 9.2% | 66.2 ± 14% | 88.7 ± 6.9%
